# In the supplement of paper PMC8728848:
# This is one part of the list.
# B1: LngA (Escherichia coli) (protein)
# chain: MLSVYNRTQKFKAEARKKIAKYHELRKQRGMSLLEVIIVLGIIGTIAAGVVILAQRAFDSRAVTDLVTNTNTVRVRMKDAYQRDGKYPDFVDPLSLTANTIKTDTSGIPAAQLVQLGKITPDEVRNNISGDFIAIGGALTSNGAQVKKGFAIELNGLSQEQCRSILGQVGNNWEYVAIGTSASGSYAMTATGVDMSVAASTTVLRSLGNNGQTTLTADKILSTCTAQVNSITLGSR
# What was measured:
# Assay in all cases: glycan array binding signal (z-score within array); higher = stronger binding
# Details in all cases: glycan notation: IUPAC condensed, linker removed
# [1] = target: Fuc(a1-2)[Gal(a1-3)]Gal(b1-4)GlcNAc(b1-2)Man(a1-3)[Fuc(a1-2)[Gal(a1-3)]Gal(b1-4)GlcNAc(b1-2)Man(a1-6)]Man(b1-4)GlcNAc(b1-4)[Fuc(a1-6)]GlcNAc
# Procedure, shortened: (§1)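 Glycan array data were curated from 3228 arrays in the Consortium for Functional Glycomics database and kept only where the protein sequence was available. Glycan names were converted to IUPAC-condensed notation, and columns mapping to the same glycan were averaged. The binding signal is a within-array Z-score, averaged across arrays of the same protein sequence at different concentrations or buffers and across linkers. Negative Z-scores can be read as non-binding.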
# [2] = target: Fuc(a1-2)[Gal(a1-3)]Gal(b1-4)GlcNAc(b1-3)GalNAc
# Procedure, shortened: as §1
# [3] = target: Fuc(a1-2)[Gal(a1-3)]Gal(b1-4)GlcNAc(b1-3)[Fuc(a1-2)[Gal(a1-3)]Gal(b1-4)GlcNAc(b1-6)]GalNAc
# Procedure, shortened: as §1
# [4] = target: Fuc(a1-2)[Gal(a1-3)]Gal(b1-4)GlcNAc(b1-6)GalNAc
# Procedure, shortened: as §1
# [5] = target: Fuc(a1-2)[Gal(a1-3)]Gal(b1-4)[Fuc(a1-3)]Glc
# Procedure, shortened: as §1
# [6] = target: Fuc(a1-2)[Gal(a1-3)]Gal(b1-4)[Fuc(a1-3)]GlcNAc
# Procedure, shortened: as §1
# [7] = target: Fuc(a1-2)[Gal(a1-3)]Gal(b1-4)[Fuc(a1-3)]GlcNAc(b1-3)GalNAc
# Procedure, shortened: as §1
# [8] = target: Fuc(a1-2)[Gal(a1-4)]Gal(b1-4)GlcNAc
# Procedure, shortened: as §1
# [9] = target: Fuc(a1-2)[GalNAc(a1-3)]Gal
# Procedure, shortened: as §1
# [10] = target: Fuc(a1-2)[GalNAc(a1-3)]Gal(b1-3)GalNAc(a1-3)[Fuc(a1-2)]Gal(b1-4)GlcNAc
# Procedure, shortened: as §1
# [11] = target: Fuc(a1-2)[GalNAc(a1-3)]Gal(b1-3)GalNAc(b1-3)Gal(a1-4)Gal(b1-4)Glc
# Procedure, shortened: as §1
# [12] = target: Fuc(a1-2)[GalNAc(a1-3)]Gal(b1-3)GlcNAc
# Procedure, shortened: as §1
# [13] = target: Fuc(a1-2)[GalNAc(a1-3)]Gal(b1-3)GlcNAc(b1-2)Man(a1-3)[Fuc(a1-2)[GalNAc(a1-3)]Gal(b1-3)GlcNAc(b1-2)Man(a1-6)]Man(b1-4)GlcNAc(b1-4)GlcNAc
# Procedure, shortened: as §1
# [14] = target: Fuc(a1-2)[GalNAc(a1-3)]Gal(b1-3)GlcNAc(b1-2)Man(a1-3)[Fuc(a1-2)[GalNAc(a1-3)]Gal(b1-3)GlcNAc(b1-2)Man(a1-6)]Man(b1-4)GlcNAc(b1-4)[Fuc(a1-6)]GlcNAc
# Procedure, shortened: as §1
# [15] = target: Fuc(a1-2)[GalNAc(a1-3)]Gal(b1-3)GlcNAc(b1-3)GalNAc
# Procedure, shortened: as §1
# [16] = target: Fuc(a1-2)[GalNAc(a1-3)]Gal(b1-3)GlcNAc(b1-6)GalNAc
# Procedure, shortened: as §1
# [17] = target: Fuc(a1-2)[GalNAc(a1-3)]Gal(b1-4)Glc
# Procedure, shortened: as §1
# [18] = target: Fuc(a1-2)[GalNAc(a1-3)]Gal(b1-4)GlcNAc
# Procedure, shortened: as §1
# [19] = target: Fuc(a1-2)[GalNAc(a1-3)]Gal(b1-4)GlcNAc(b1-2)Man
# Procedure, shortened: as §1
# [20] = target: Fuc(a1-2)[GalNAc(a1-3)]Gal(b1-4)GlcNAc(b1-2)Man(a1-3)[Fuc(a1-2)[GalNAc(a1-3)]Gal(b1-4)GlcNAc(b1-2)Man(a1-6)]Man(b1-4)GlcNAc(b1-4)GlcNAc
# Procedure, shortened: as §1
# [21] = target: Fuc(a1-2)[GalNAc(a1-3)]Gal(b1-4)GlcNAc(b1-2)Man(a1-3)[Fuc(a1-2)[GalNAc(a1-3)]Gal(b1-4)GlcNAc(b1-2)Man(a1-6)]Man(b1-4)GlcNAc(b1-4)[Fuc(a1-6)]GlcNAc
# Procedure, shortened: as §1
# [22] = target: Fuc(a1-2)[GalNAc(a1-3)]Gal(b1-4)GlcNAc(b1-3)Gal(b1-4)GlcNAc
# Procedure, shortened: as §1
# [23] = target: Fuc(a1-2)[GalNAc(a1-3)]Gal(b1-4)GlcNAc(b1-3)Gal(b1-4)GlcNAc(b1-3)Gal(b1-4)GlcNAc
# Procedure, shortened: as §1
# [24] = target: Fuc(a1-2)[GalNAc(a1-3)]Gal(b1-4)GlcNAc(b1-3)GalNAc
# Procedure, shortened: as §1
# [25] = target: Fuc(a1-2)[GalNAc(a1-3)]Gal(b1-4)GlcNAc(b1-3)[Fuc(a1-2)[GalNAc(a1-3)]Gal(b1-4)GlcNAc(b1-6)]GalNAc
# Procedure, shortened: as §1
# [26] = target: Fuc(a1-2)[GalNAc(a1-3)]Gal(b1-4)GlcNAc(b1-6)GalNAc
# Procedure, shortened: as §1
# [27] = target: Fuc(a1-2)[GalNAc(a1-3)]Gal(b1-4)[Fuc(a1-3)]GlcNAc
# Procedure, shortened: as §1
# [28] = target: Fuc(a1-2)[GalNAc(a1-3)]Gal(b1-4)[Fuc(a1-3)]GlcNAc(b1-3)GalNAc
# Procedure, shortened: as §1
# [29] = target: Fuc(a1-2)[GalNAc(a1-4)]Gal(b1-4)GlcNAc
# Procedure, shortened: as §1
# [30] = target: Fuc(a1-2)[GalNAc(b1-3)]Gal
# Procedure, shortened: as §1
# Fuc(a1-3)GlcNAc = target: Fuc(a1-3)GlcNAc
# Procedure, shortened: as §1
# [31] = target: Fuc(a1-3)[Gal(b1-4)]Glc6S
# Procedure, shortened: as §1
# [32] = target: Fuc(a1-3)[Gal(b1-4)]GlcNAc
# Procedure, shortened: as §1
# [33] = target: Fuc(a1-3)[Gal(b1-4)]GlcNAc(b1-2)Man
# Procedure, shortened: as §1
# [34] = target: Fuc(a1-3)[Gal(b1-4)]GlcNAc(b1-2)Man(a1-3)[Fuc(a1-3)[Gal(b1-4)]GlcNAc(b1-2)Man(a1-6)]Man(b1-4)GlcNAc(b1-4)GlcNAc
# Procedure, shortened: as §1
# [35] = target: Fuc(a1-3)[Gal(b1-4)]GlcNAc(b1-2)Man(a1-3)[Fuc(a1-3)[Gal(b1-4)]GlcNAc(b1-2)Man(a1-6)]Man(b1-4)GlcNAc(b1-4)[Fuc(a1-6)]GlcNAc
# Procedure, shortened: as §1
# [36] = target: Fuc(a1-3)[Gal(b1-4)]GlcNAc(b1-3)Gal(b1-3)[Fuc(a1-4)]GlcNAc
# Procedure, shortened: as §1
# [37] = target: Fuc(a1-3)[Gal(b1-4)]GlcNAc(b1-3)Gal(b1-4)[Fuc(a1-3)]GlcNAc
# Procedure, shortened: as §1
# [38] = target: Fuc(a1-3)[Gal(b1-4)]GlcNAc(b1-3)Gal(b1-4)[Fuc(a1-3)]GlcNAc(b1-3)Gal(b1-4)[Fuc(a1-3)]GlcNAc
# Procedure, shortened: as §1
# [39] = target: Fuc(a1-3)[Gal(b1-4)]GlcNAc(b1-3)GalNAc
# Procedure, shortened: as §1
# [40] = target: Fuc(a1-3)[Gal(b1-4)]GlcNAc(b1-6)GalNAc
# Procedure, shortened: as §1
# [41] = target: Fuc(a1-3)[Gal(b1-4)]GlcNAc(b1-6)[Gal(b1-3)GlcNAc(b1-3)]Gal(b1-4)Glc
# Procedure, shortened: as §1
# [42] = target: Fuc(a1-3)[Gal(b1-4)]GlcNAc6S
# Procedure, shortened: as §1
# [43] = target: Fuc(a1-3)[Gal3S(b1-4)]Glc
# Procedure, shortened: as §1
# [44] = target: Fuc(a1-3)[Gal3S(b1-4)]GlcNAc
# Procedure, shortened: as §1
binder,measurement,setting,value
B1,glycan array binding signal (z-score),[1],-0.216
same,glycan array binding signal (z-score),[2],-0.306
same,glycan array binding signal (z-score),[3],-0.197
same,glycan array binding signal (z-score),[4],1.27
same,glycan array binding signal (z-score),[5],-0.596
same,glycan array binding signal (z-score),[6],-0.274
same,glycan array binding signal (z-score),[7],-0.252
same,glycan array binding signal (z-score),[8],-0.374
same,glycan array binding signal (z-score),[9],-0.472
same,glycan array binding signal (z-score),[10],-0.453
same,glycan array binding signal (z-score),[11],-0.408
same,glycan array binding signal (z-score),[12],-0.508
same,glycan array binding signal (z-score),[13],-0.385
same,glycan array binding signal (z-score),[14],-0.517
same,glycan array binding signal (z-score),[15],-0.284
same,glycan array binding signal (z-score),[16],-0.555
same,glycan array binding signal (z-score),[17],-0.517
same,glycan array binding signal (z-score),[18],-0.55
same,glycan array binding signal (z-score),[19],-0.403
same,glycan array binding signal (z-score),[20],-0.537
same,glycan array binding signal (z-score),[21],-0.215
same,glycan array binding signal (z-score),[22],-0.078
same,glycan array binding signal (z-score),[23],-0.381
same,glycan array binding signal (z-score),[24],-0.131
same,glycan array binding signal (z-score),[25],-0.252
same,glycan array binding signal (z-score),[26],-0.343
same,glycan array binding signal (z-score),[27],0.625
same,glycan array binding signal (z-score),[28],0.112
same,glycan array binding signal (z-score),[29],-0.513
same,glycan array binding signal (z-score),[30],-0.244
same,glycan array binding signal (z-score),Fuc(a1-3)GlcNAc,-0.418
same,glycan array binding signal (z-score),[31],1.11
same,glycan array binding signal (z-score),[32],-0.135
same,glycan array binding signal (z-score),[33],-0.088
same,glycan array binding signal (z-score),[34],-0.119
same,glycan array binding signal (z-score),[35],-0.064
same,glycan array binding signal (z-score),[36],-0.463
same,glycan array binding signal (z-score),[37],-0.277
same,glycan array binding signal (z-score),[38],-0.344
same,glycan array binding signal (z-score),[39],-0.267
same,glycan array binding signal (z-score),[40],-0.182
same,glycan array binding signal (z-score),[41],-0.392
same,glycan array binding signal (z-score),[42],-0.188
same,glycan array binding signal (z-score),[43],-0.365
same,glycan array binding signal (z-score),[44],0.116
